PubChem BioAssay AID894 (National Center for Advancing Translational Sciences (NCATS), 2007)
Values joined by “and” are separate entries in the source; they are usually repeats but may differ in a detail not shown here. Identical values can stand only once. In all, about 150,000 compounds went through this assay and about 6,500 (4.3%) were called active. Inconclusive results, whose numbers are uncertain, are shown with a selection of clear calls. Calls follow the shape of the dose curve; as a rule, active = well fitted inhibition curve with a large enough effect (not every such curve was filed as active); inconclusive = small, poorly fitted or top-dose-only effect, or another doubt; inactive = no such curve, though single readings can be large or run the other way. Potencies of inconclusive entries are left out as doubtful fits.

Target: 15-hydroxyprostaglandin dehydrogenase [NAD(+)] (Homo sapiens) (UniProt P15428)
Experiment: qHTS Assay for Inhibitors of HPGD (15-Hydroxyprostaglandin Dehydrogenase)
Conditions: purified HPGD, NADH fluorescence kinetic, PGE2 substrate; activity change, negative = inhibition: stronger effect = lower value
Method in brief: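 NADH formation kinetics: reaction with 30 uM PGE2 and 1 mM NAD+ (final), 20 nM enzyme, Tris-HCl pH 8 with Tween 20, after 15 min compound preincubation at room temperature. Fluorescence change, last versus first of five reads.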
% is scaled to controls: 0 for no effect and ±100 for the full control effect; potency is read from the fitted curve at half-maximal effect; tags tell the direction and shape of the fitted curve.

Chain of UniProt P15428 (P15428 whole entry, looked up): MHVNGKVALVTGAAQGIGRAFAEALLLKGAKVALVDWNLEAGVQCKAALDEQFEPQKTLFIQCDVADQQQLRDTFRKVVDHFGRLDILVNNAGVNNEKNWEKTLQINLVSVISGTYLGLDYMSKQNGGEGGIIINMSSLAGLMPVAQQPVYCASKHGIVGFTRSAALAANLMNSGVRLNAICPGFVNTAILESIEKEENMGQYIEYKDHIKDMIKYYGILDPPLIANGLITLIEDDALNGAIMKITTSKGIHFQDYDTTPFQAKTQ

For `CC(C)(C)c1ccc(/C=C/C(=O)Nc2ccncc2)cc1`, which Potency is on record?
Its Potency is inconclusive [inhibitor, single point].

`Cc1ccc(S(=O)(=O)/N=C2/NC(=O)/C(=C/c3ccc(Br)o3)S2)cc1` was tested. Which Potency did it give?
Its Potency is active: 14.1 µM.

How did the Potency turn out when `Cc1cc(C)c(C#N)c(N2CCCC2)n1` was run?
The Potency was inconclusive [inhibitor, partial curve].

How did the Potency turn out when `COc1cc(-c2nnc(SCc3cc(=O)oc4cc(C)ccc34)o2)cc(OC)c1OC` was run?
Its Potency is inconclusive [inhibitor, partial curve].

`CCOC(=O)c1ccc(N2C(=O)CC(N(Cc3ccc4c(c3)OCO4)C(=O)Nc3ccccc3)C2=O)cc1` (stereo not drawn) was tested. Which activity change, negative = inhibition did it give?
The activity change, negative = inhibition was inactive: -9.24%.

How did the Potency turn out when `Cc1cc(NC(=O)CSc2ccc3nnc(-c4cccnc4)n3n2)no1` was run?
The Potency was inconclusive [inhibitor, single point].

`CCCNC(=O)CCNC(=O)c1ccc(C(C)(C)C)cc1` was tested. Which activity change, negative = inhibition did it give?
The activity change, negative = inhibition was inactive: -11.2%.

`COC(=O)CSc1ncnc2c1sc1nc(-c3ccco3)c3c(c12)CC(C)(C)OC3` was tested. Which Potency did it give?
The Potency was inconclusive [inhibitor, partial curve].

`Cc1cc(C)nc(SCc2cc(=O)c(OC(=O)c3ccc(Cl)c([N+](=O)[O-])c3)co2)n1` was tested. Which Potency did it give?
Its Potency is active: 11.2 µM.

How did the Potency turn out when `CCS(=O)(=O)N1Cc2ccccc2CC1C(=O)Nc1nnc(SCc2c(Cl)cccc2Cl)s1` (stereo not drawn) was run?
Its Potency is inconclusive [inhibitor, partial curve, poor fit].

How did the activity change, negative = inhibition turn out when `CCn1c2c(c(=N)c3c1CCC3)CCC2` was run?
Its activity change, negative = inhibition is inactive: -10.3%.

`OC[C@H]1O[C@@H](n2cnc3cncnc32)[C@H](O)[C@@H]1O` was tested. Which activity change, negative = inhibition did it give?
Its activity change, negative = inhibition is inactive: -3.61% and inactive: -12.2%.

With `CC(C)C(C)NC(=O)CSc1nc2scc(-c3ccco3)c2c(=O)n1-c1ccccc1` (stereo not drawn) as the compound, how does the Potency read?
Its Potency is inconclusive [inhibitor, full curve, poor fit].

`COc1ccc(/C=C(\C#N)C(=O)OCC(=O)Nc2ccc(C(C)(C)C)cc2)cc1` was tested. Which Potency did it give?
Its Potency is inconclusive [inhibitor, single point].

For `CCn1c(O)c(N=NC2=NC(=O)CS2)c2ccccc21`, which activity change, negative = inhibition is on record?
The activity change, negative = inhibition was inactive: -20.5%.

`COC(=O)[C@@]1(Cc2ccc(F)cc2)[C@H]2c3cc(C(=O)N(C)C)n(Cc4c(CO)[nH]cc(C)c4=O)c3C[C@H]2CN1C(=O)c1ccccc1` was tested. Which activity change, negative = inhibition did it give?
Its activity change, negative = inhibition is inactive: -15.3% and inactive: -15.2%.

`CC1Oc2ccccc2C=C1/C=N/NC(=O)c1ccccc1O` (stereo not drawn) was tested. Which Potency did it give?
Its Potency is inconclusive [inhibitor, partial curve].

For `C=CCn1c(SCC(=O)Nc2ccc(-c3nc4ccc(C)cc4s3)cc2)nnc1-c1ccncc1`, which Potency is on record?
The Potency was inconclusive [inhibitor, partial curve].
